# Experimental data published in PubChem BioAssay AID488969 (Vanderbilt High Throughput Screening Facility, 2010).
# In all, about 110,000 compounds were measured (“z-score”: median about -0.1, highest 2% from about 2 on). The list shows a part of the results. Calls of active or inactive are those of the source.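 How the source made its calls: active means z-score in the third read window above 3 or below -3; inactive means the rest.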
# Biological target: Metabotropic glutamate receptor 8 (Rattus norvegicus) (UniProt P70579)
# Test: rat mGluR8 modulators via GIRK flux, primary screen, cell-based, thallium flux, HTS (AID 488969)
# Settings: HEK293 rat mGluR8, GIRK (G protein-gated inwardly rectifying potassium channel) thallium flux, FluoZin2; at 10 µM; stronger effect = higher value; submaximal glutamate (EC20) added with thallium
# Chain of UniProt P70579 (P70579 whole entry, looked up): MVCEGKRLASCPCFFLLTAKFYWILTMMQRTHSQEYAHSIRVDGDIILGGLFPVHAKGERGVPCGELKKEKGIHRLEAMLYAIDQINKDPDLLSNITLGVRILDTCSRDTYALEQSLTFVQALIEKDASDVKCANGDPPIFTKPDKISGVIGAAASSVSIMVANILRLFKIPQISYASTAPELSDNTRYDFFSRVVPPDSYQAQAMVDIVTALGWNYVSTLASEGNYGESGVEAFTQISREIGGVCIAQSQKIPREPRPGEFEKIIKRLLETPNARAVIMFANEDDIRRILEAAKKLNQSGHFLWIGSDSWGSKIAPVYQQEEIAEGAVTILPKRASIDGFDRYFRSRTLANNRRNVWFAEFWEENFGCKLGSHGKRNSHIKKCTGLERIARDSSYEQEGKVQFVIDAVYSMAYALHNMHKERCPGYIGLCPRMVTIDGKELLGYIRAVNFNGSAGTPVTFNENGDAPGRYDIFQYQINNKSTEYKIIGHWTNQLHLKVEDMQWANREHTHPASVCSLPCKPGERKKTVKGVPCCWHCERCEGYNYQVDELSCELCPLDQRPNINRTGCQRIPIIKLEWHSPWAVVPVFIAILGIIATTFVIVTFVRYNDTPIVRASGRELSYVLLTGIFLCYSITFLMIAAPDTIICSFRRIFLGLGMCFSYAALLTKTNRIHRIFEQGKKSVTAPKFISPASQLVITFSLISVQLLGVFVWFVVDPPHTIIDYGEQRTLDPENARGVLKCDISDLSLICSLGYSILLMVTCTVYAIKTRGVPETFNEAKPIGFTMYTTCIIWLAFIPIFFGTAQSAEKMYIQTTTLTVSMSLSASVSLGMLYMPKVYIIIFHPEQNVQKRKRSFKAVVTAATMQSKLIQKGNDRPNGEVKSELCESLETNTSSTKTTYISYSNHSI
row,SMILES,z-score
1,COc1cc(/C=C/C(=O)Nc2nc3ccc(S(=O)(=O)N(C)C)cc3s2)cc(OC)c1OC,-0.254
2,COc1ccc(NC(=S)N(CCCN2CCCCC2)Cc2cccs2)cc1,-0.312
3,Cc1ccc2c(c1)[C@@H]1CN(C)CC[C@@H]1N2S(=O)(=O)c1ccc([N+](=O)[O-])cc1,-0.822
4,C#CCNc1nc(CC)nc2c1nnn2Cc1ccccc1F,-0.47
5,CCn1c(SCC(=O)Nc2nc(C)c(C)s2)nnc1-c1cccnc1,0.705
6,O=C(NCC(c1cccnc1)N1CCOCC1)c1cccc(Cl)c1 (stereo not given),0.257
7,C/C(=C\C(=O)c1ccc(Cl)cc1)NCc1ccc2c(c1)OCO2,-0.039
8,Cc1cccc(NC(=S)NNC(=O)c2csc3c2CCC(C)C3)c1 (stereo not given),active: 9.39
9,NS(=O)(=O)c1cccn1-c1ncc(C(F)(F)F)cc1Cl,-0.223
10,C#CCOc1ccc(/C=N/O)cc1Cl,-1.42
11,COC(=O)c1sc(NC(=O)CSc2nnnn2-c2cccc(OC)c2)nc1C,-0.138
12,CCn1c(C)cc(/C=C2\NC(=O)N(Cc3ccc(Cl)cc3)C2=O)c1C,-0.173
13,O=C(NC1CCCC1)C1CCCN(S(=O)(=O)c2cnc[nH]2)C1 (stereo not given),-0.0267
14,Cc1cccc(NC(=O)C23CCC(C)(/C(=N/O)C2)C3(C)C)c1 (stereo not given),1.48
15,Clc1ccc2c(N/N=C/c3cccc(Br)c3)ccnc2c1,-0.261
16,CCOCCCn1c(=NC(=O)c2ccc(OC)c(OC)c2)c(C#N)cc2c(=O)n3cccc(C)c3nc21,-0.362
17,O=C(COc1nc2ccccc2nc1N1CCOCC1)Nc1ccc(S(=O)(=O)N2CCCC2)cc1,0.134
18,Cc1ccc(S(=O)(=O)/N=C(/Nc2ccccn2)c2ccc(Cl)cc2)cc1,0.186
19,Cc1ccc(N2CC(C(=O)Nc3nnc(SCC(=O)Nc4cc(C)on4)s3)CC2=O)cc1 (stereo not given),-0.268
20,O=C(NCc1ccc(Cl)cc1)NCC(F)(F)F,0.0319
21,OCCNCCOc1ccc(Cl)c(Cl)c1,0.119
22,Cc1sc2nc(CSc3ccccc3)nc(NCCN(C)C)c2c1C,0.377

row,SMILES,z-score
1,COc1ccc(NC(=S)Nc2ccccc2F)c(OC)c1,0.102
2,Cc1ccc2nc(NC(=O)CCNS(=O)(=O)c3ccc(Br)s3)sc2c1,-0.0309
3,CCn1c2ccccc2c2cc(NC(=O)C(C)C)ccc21,-0.299
4,Cc1ccc(N/C=C/C(=O)c2ccccc2)cc1C,0.53
5,Cn1c(-c2ccc(F)cc2)cnc1SCC(=O)Nc1ccccc1N1CCOCC1,-2.22
6,NC1=NS(=O)(=O)NC1c1cccc(Cl)c1 (stereo not given),-0.0993
7,Cc1ccc(N2C(=O)[C@@H]3C(C(=O)C(c4ccccc4)c4ccccc4)=NN[C@@H]3C2=O)cc1,-0.188
8,CC(NC(=O)c1ccco1)C1CCCO1 (stereo not given),-0.19
9,Cc1cccc(NC(=O)CN2C(=O)S/C(=C\C(=O)Nc3ccc(Cl)cc3)C2=O)c1,-0.144
10,COC(=O)c1ccc(C2C3=C(Nc4nnnn42)c2ccccc2OC3)cc1 (stereo not given),-0.413
11,O=C(N/N=C\c1ccc(O)c([N+](=O)[O-])c1)c1ccccc1-n1cccc1,0.122
12,Cc1ccc(NC(=O)C(=O)c2cn(CC(=O)N3CCCCC3)c3ccccc23)cc1,0.174
13,O=C1/C(=C\c2cccnc2)CN(Cc2ccccc2)C/C1=C\c1cccnc1,-0.063
14,CCOC(=O)C1CCCN(CCC(=O)Nc2ccccc2)C1 (stereo not given),-0.068
15,COC(=O)CSc1nnc(-c2cccs2)n1-c1ccc(Cl)cc1,-1.43
16,Cn1nc2c(c1C(=O)O)CCCC2,0.299
17,CC(C)(C)n1nnnc1C(c1cccs1)N1CCN(Cc2ccc3c(c2)OCO3)CC1 (stereo not given),-0.36
18,CN(C)c1nc(OCCNC(=O)Nc2ccccc2)nc(N2CCOCC2)n1,-0.658
19,O=C1N/C(=N/NC(=O)c2cccc3ccccc23)S/C1=C\c1ccccc1OCc1ccccc1,-0.335
20,CC(=O)c1cc2c(cc1NS(=O)(=O)c1ccc(C)cc1)OCCO2,0.237
21,O=C(c1cccc(F)c1)N1CCN(C(=O)C2CC2)CC1,-0.948
22,Fc1ccc(NC(=S)NCc2ccccc2Cl)cc1,1.74

row,SMILES,z-score
1,O=C(N/N=C1/CC(c2ccccc2)Oc2ccccc21)C1CC1 (stereo not given),-0.0209
2,Cc1ccc(NC(=O)/C(CN(C)C)=N\O)cc1,-1.32
3,Cc1ccc(CCc2nnc(SCC(=O)Nc3cccc(Cl)c3)n2-c2ccccc2)o1,-0.254
4,O=C(NCc1ccccn1)C1CCC(=O)N1C1CCCCC1 (stereo not given),0.715
5,COc1cccc(OCCNc2cc(Cl)ccc2[N+](=O)[O-])c1,0.00367
6,O=C(c1cc(-c2ccccc2)nc2ccccc12)N1CCOCC1,-0.188
7,Cc1ccc(SCC(=O)NCc2ccncc2)cc1,-0.329
8,CCOC(=O)c1ccc(NC(=S)Nc2ccccn2)cc1,0.444
9,O=c1c2ccccc2n2nnnc2n1-c1ccccc1,-0.0808
10,CCOC(=O)C1CCN(C(=O)C2CCN(S(=O)(=O)c3cccc4cccnc34)CC2)CC1,-0.911
11,COc1ccc(-c2nnc(OCc3ccccc3)c3ccccc23)cc1,-0.227
12,O=C1CC(N2CCC(C(=O)N3CCCCC3)CC2)C(=O)N1 (stereo not given),0.247
13,Fc1ccc(-c2csc3ncnc(Cl)c23)cc1,0.443
14,Cc1ccc(CC2C(=O)N(c3ncccn3)C(=O)C2C)cc1 (stereo not given),1.03
15,O=c1[nH]c(/C=C/c2ccccc2OC(F)F)nc2c1cnn2-c1ccccc1,-0.274
16,c1ccc(-c2csc(Nc3nc(N4CCOCC4)nc(N4CCOCC4)n3)n2)cc1,0.543
17,O=C(O)c1cccc(Oc2ccc([N+](=O)[O-])cc2)c1,0.482
18,O=C(CCc1ccc(S(=O)(=O)NCc2ccccc2)cc1)NCC1CCCO1 (stereo not given),-0.199
19,O=C(NCCCN1CCN(CCCNC(=O)c2cccc(Cl)c2)CC1)c1cccc(Cl)c1,0.118
20,CCCOc1ccccc1C1NC(=O)NC(C)=C1C(=O)OCCOC (stereo not given),-0.598
21,O=C(Nc1ccc(Cl)cn1)c1cccc(S(=O)(=O)N2CCOCC2)c1,-0.352
22,COC(=O)c1ccc(NC(c2ccc(Cl)cc2)P(=O)(OC)OC)cc1 (stereo not given),-0.338

row,SMILES,z-score
1,Cc1cc(C)c2c(n1)nn1c(NCCOCCO)cc(C)nc21,-0.491
2,CN(C(=O)c1ccccn1)C1(C(=O)NC2CCCCC2)CCCCC1,0.116
3,c1ccc2nc3c(nc2c1)c1ccccc1n3CCN1CCOCC1,-0.0524
4,COc1ccccc1CC(=O)Nc1ccc2nc(C)sc2c1,-0.41
5,COCCCn1c(SCc2nnc(-c3ccc(OC)c(OC)c3)o2)nc2ccccc2c1=O,-0.725
6,CCCCc1c(C)c(C#N)c2nc3ccccc3n2c1Cl,-0.226
7,O=C(COC(=O)C1CCN(S(=O)(=O)c2ccc3c(c2)OCCO3)CC1)Nc1ccc(C(F)(F)F)cc1,-2.15
8,CC1Cc2ccccc2N1C(=O)CSc1nnc(-c2ccc(S(=O)(=O)N3CCOCC3)cc2)n1C (stereo not given),-0.209
9,Cc1occc1-c1nnc(SCC(=O)N(C)C)o1,0.103
10,O=C(/C=C/Nc1ccccc1OC(F)(F)F)C(F)(F)F,-0.635
11,C=CCN1C(=O)OC2(CCCCC2)C1(C)O (stereo not given),-0.219
12,COc1cccc(N2CCN(Cc3nc4scc(-c5ccccc5)c4c(=O)[nH]3)CC2)c1,-0.559
13,CN(C(=O)c1cccc(N2C(=O)C3CC=CCC3C2=O)c1)C1CCCCC1 (stereo not given),-0.00466
14,COc1ccc(OCC(=O)Nc2cc(-c3nn(C)c(=O)c4ccccc34)ccc2OC)cc1,-1.24
15,O=C(NCC1CCCO1)c1cccc(N2CCCC2=O)c1 (stereo not given),0.31
16,Cc1ccccc1OCCSc1nc(N(C)C)nc(N(C)C)n1,-0.000271
17,Cc1ccc(NC(=O)CN(c2ccc3c(c2)OCO3)S(=O)(=O)c2c(C)n[nH]c2C)cc1,-0.0303
18,COc1cccc(CNc2ncc(Br)cc2Br)c1O,-0.468
19,O=C(CN1CCC(n2nnc3cc(F)ccc32)CC1)NNC(=O)c1ccccc1,-0.146
20,Cc1sc(-c2ccncc2)nc1OC(=O)c1ccccc1,-0.372
21,CCOc1cc(C)cc2oc(=O)cc(-c3ccccc3)c12,0.0205
22,Cc1ccc(S(=O)(=O)N2CCC(C(=O)OCc3ccc([N+](=O)[O-])cc3)CC2)cc1,-0.641

row,SMILES,z-score
1,C=C(C)C1CC=C(C)/C(=N/NC(=O)COc2ccc(C)cc2)C1 (stereo not given),1.47
2,Cc1ccc(CNC(=O)COc2ccccc2-c2ccccc2)cc1,-0.0564
3,O=C1Nc2ccccc2/C1=N\N=C\C1=C(N2CCOCC2)C(=C\c2ccccc2)/CC1,0.199
4,O=C(CCCN1C(=O)c2cccc3cccc(c23)C1=O)N1CCN(c2ccccc2)CC1,-0.201
5,CC1=NC(Nc2nc(C)c3ccccc3n2)=NC(C)(C)C1,0.113
6,Cc1ccc(S(=O)(=O)Oc2ccc(/C=N/NC(=O)c3nn(C)cc3[N+](=O)[O-])cc2)cc1,-0.351
7,COc1ccc(NC(=S)Nc2ccccn2)c(OC)c1,0.235
8,O=C(Nc1ccc(CN2CCOCC2)cc1)c1ccc(-c2ccc(Br)cc2)o1,-0.0297
9,COC(=O)C1=CN(CC2CCCO2)C=C(C(=O)OC)C1c1ccccc1C(F)(F)F (stereo not given),0.236
10,CN(C)C(=O)C(=O)c1cccn1-c1ccccc1C#N,0.429
11,COCCNC(=S)NCCCNc1nc2cc3c(cc2cc1C#N)OCO3,-0.317
12,COC(=O)c1ccc(NC(=O)CCn2c(=O)oc3ccccc32)cc1,2.57
13,CCOC(=O)C1=C(C)NC(=O)NC1c1cc(Br)c(O)c(OC)c1 (stereo not given),-0.262
14,CCOc1cc(/C=N/NC(=O)OC)ccc1OCCSc1ccc(Cl)cc1,0.0465
15,CS(=O)(=O)c1ccc2c(c1)SC1=NC(=O)/C(=C/c3ccco3)C(=N)N12,-0.0252
16,N#Cc1cnn(Cc2ccc(Cl)cc2)c1N,0.669
17,CCOC(=O)CN(Cc1ccc(OC)c(OC)c1)S(=O)(=O)c1ccc(OC)cc1,0.0846
18,CC(=O)c1c(C)[nH]c(C(=O)N2CCc3ccccc32)c1C,0.662
19,CCN(CC)c1nc(N2CCOCC2)c(C#N)c2c1CN(C)CC2,-0.189
20,CC1=NNC(=O)C1CCC(=O)N/N=C/C(Br)=C/c1ccccc1 (stereo not given),-0.0952
21,COc1cc(NC(=O)CSc2nc(C)cs2)cc(OC)c1,-0.213
22,O=C(COc1ccc(Cl)cc1)NNC(=O)C(=O)N1CCCCC1,-0.105
